Measurements reported in the supplement of paper PMC7125110.
± gives the standard error. This sample is rich in variants without activity.

B1: glmS ribozyme (parent)
chain: AUAAAAGCGCCAGAACUACAGAAAUGUAGUUGACGAGGAGGAGGUUUAUCGAAUUUUCGGCGGAUGCCUCCAAA

Experiments:
Details in all cases: with glucosamine-6-phosphate
glucosamine-6-phosphate [1] = variants of: B1; test: self-cleavage kobs at 40 uM GlcN6P; higher = faster cleavage; RNA array
Procedure, shortened: (§1)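 Weighted Michaelis–Menten fits across concentrations supplied kcat and KM, based on kobs from one- or two-exponential decay fits to normalised per-tile medians. The data came from barcoded ribozyme variants transcribed in situ by E. coli RNA polymerase on sequenced MiSeq chips and tracked at 37 °C by a hybridised Cy3 probe. Glucosamine-6-phosphate (40 μM to 10 mM) in HEPES/KCl/Mg(OAc)2 buffer was flowed in.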

glucosamine-6-phosphate [2] = variants of: B1; test: self-cleavage kobs at 640 uM GlcN6P; higher = faster cleavage; RNA array
Procedure, shortened: as §1

glucosamine-6-phosphate [3] = variants of: B1; test: self-cleavage kobs at 160 uM GlcN6P; higher = faster cleavage; RNA array
Procedure, shortened: as §1

glucosamine-6-phosphate [4] = variants of: B1; test: self-cleavage kobs at 2500 uM GlcN6P; higher = faster cleavage; RNA array
Procedure, shortened: as §1

glucosamine-6-phosphate [5] = variants of: B1; test: self-cleavage kobs at 10000 uM GlcN6P; higher = faster cleavage; RNA array
Procedure, shortened: as §1

Row | Variant | self-cleavage kobs at 40 uM GlcN6P (glucosamine-6-phosphate [1]) [s⁻¹] | self-cleavage kobs at 640 uM GlcN6P (glucosamine-6-phosphate [2]) [s⁻¹] | self-cleavage kobs at 160 uM GlcN6P (glucosamine-6-phosphate [3]) [s⁻¹] | self-cleavage kobs at 2500 uM GlcN6P (glucosamine-6-phosphate [4]) [s⁻¹] | self-cleavage kobs at 10000 uM GlcN6P (glucosamine-6-phosphate [5]) [s⁻¹]
1 | U57C C61A | < 1e-05 | < 1e-05 | < 1e-05 |  | 
2 | G60U C61G | < 1e-05 |  |  | < 1e-05 | < 1e-05
3 | G63C C67G | < 1e-05 |  |  |  | 
4 | G63U G66C | < 1e-05 |  | < 1e-05 | < 1e-05 | < 1e-05
5 | A64G C68G C71A | < 1e-05 | < 1e-05 | < 1e-05 |  | < 1e-05
6 | U56C C68A | < 1e-05 | < 1e-05 | < 1e-05 |  | < 1e-05
7 | U56G G60U A64U | < 1e-05 | < 1e-05 | < 1e-05 |  | < 1e-05
8 | A64G U65G | 5.76e-05 ± 1e-05 | 0.000845 ± 0.00015 | 0.000262 ± 6e-05 | 0.00174 ± 0.00029 | 0.00489 ± 0.00066
9 | G62U U65C | < 1e-05 | < 1e-05 | < 1e-05 |  | 
10 | U56C C67U | < 1e-05 |  | < 1e-05 |  | 
11 | U57C G60C | < 1e-05 | < 1e-05 | < 1e-05 | < 1e-05 | < 1e-05
12 | G63C C71A | < 1e-05 |  |  |  | < 1e-05
13 | G60U G66A C68G C70G | < 1e-05 |  |  |  | < 1e-05
14 | A64C U65A | < 1e-05 |  | < 1e-05 |  | 
15 | G60U U65C | < 1e-05 | < 1e-05 | < 1e-05 | < 1e-05 | < 1e-05
16 | G60A G66A | < 1e-05 |  | < 1e-05 |  | 
17 | G62U A64C C70A | < 1e-05 |  |  |  | < 1e-05
18 | G62C G66U | < 1e-05 | < 1e-05 |  |  | 
19 | G62C C71G | < 1e-05 |  | < 1e-05 |  | < 1e-05
20 | G63A A64G | < 1e-05 |  |  |  | < 1e-05
21 | G59U G63C | < 1e-05 |  |  |  | < 1e-05
22 | U56C C58U | < 1e-05 |  |  |  | 
23 | C61G A64C | < 1e-05 |  | < 1e-05 |  | < 1e-05
24 | A64U C68A | < 1e-05 | < 1e-05 |  |  | < 1e-05
25 | C58U | < 1e-05 |  |  |  | 

Row | Variant | self-cleavage kobs at 40 uM GlcN6P (glucosamine-6-phosphate [1]) [s⁻¹] | self-cleavage kobs at 640 uM GlcN6P (glucosamine-6-phosphate [2]) [s⁻¹] | self-cleavage kobs at 160 uM GlcN6P (glucosamine-6-phosphate [3]) [s⁻¹] | self-cleavage kobs at 2500 uM GlcN6P (glucosamine-6-phosphate [4]) [s⁻¹] | self-cleavage kobs at 10000 uM GlcN6P (glucosamine-6-phosphate [5]) [s⁻¹]
26 | U56G G60U | < 1e-05 | < 1e-05 | < 1e-05 |  | 
27 | C58U C71U | < 1e-05 |  |  |  | 
28 | A64G U65C C68A | < 1e-05 |  |  | < 1e-05 | < 1e-05
29 | G60C G66U | < 1e-05 | < 1e-05 |  | < 1e-05 | 
30 | G60A A64G | < 1e-05 |  | < 1e-05 |  | 
31 | G60A A64U | < 1e-05 | < 1e-05 |  | < 1e-05 | 
32 | C61U C67A | < 1e-05 |  |  |  | < 1e-05
33 | U56C C61G | < 1e-05 |  |  | < 1e-05 | < 1e-05
34 | G59U C71G | < 1e-05 |  | < 1e-05 |  | 
35 | G63U U69C | < 1e-05 |  |  |  | < 1e-05
36 | U56G C61G | < 1e-05 |  |  |  | < 1e-05
37 | U56G A64U C67U | < 1e-05 |  |  |  | 
38 | G63A U65G C67G | < 1e-05 |  |  |  | 
39 | A64G C67U | 2.93e-05 ± 7.3e-06 | 0.000628 ± 8.6e-05 | 0.000155 ± 2.3e-05 | 0.00125 ± 0.00017 | 0.00154 ± 0.00015
40 | A64G U69A | < 1e-05 | 3.36e-05 ± 1.6e-05 |  | 4.75e-05 ± 1.6e-05 | 7.42e-05 ± 1.3e-05
41 | U56C C70A | < 1e-05 |  |  |  | < 1e-05
42 | G59C C68A | < 1e-05 |  |  |  | < 1e-05
43 | U56A C67U | 0.000175 ± 1.9e-05 | 0.000938 ± 8.9e-05 | 0.000452 ± 6.1e-05 |  | 
44 | G59C G62U U69A | < 1e-05 | < 1e-05 |  |  | 
45 | G62C U65C | < 1e-05 | < 1e-05 | < 1e-05 | < 1e-05 | 
46 | G62U G66U C71U | < 1e-05 | < 1e-05 |  | < 1e-05 | 
47 | U57G G59A | < 1e-05 | < 1e-05 |  |  | 
48 | G59C U65C C68G | < 1e-05 |  |  |  | < 1e-05
49 | G59C A64G | < 1e-05 | < 1e-05 |  |  | < 1e-05
50 | G59A C71U | < 1e-05 |  |  |  | 

Row | Variant | self-cleavage kobs at 40 uM GlcN6P (glucosamine-6-phosphate [1]) [s⁻¹] | self-cleavage kobs at 640 uM GlcN6P (glucosamine-6-phosphate [2]) [s⁻¹] | self-cleavage kobs at 160 uM GlcN6P (glucosamine-6-phosphate [3]) [s⁻¹] | self-cleavage kobs at 2500 uM GlcN6P (glucosamine-6-phosphate [4]) [s⁻¹] | self-cleavage kobs at 10000 uM GlcN6P (glucosamine-6-phosphate [5]) [s⁻¹]
51 | G60C G63C | < 1e-05 | < 1e-05 | < 1e-05 | < 1e-05 | < 1e-05
52 | G62C U69A | < 1e-05 |  |  |  | 
53 | G62A A64G | < 1e-05 |  |  |  | 
54 | U57G U65A | < 1e-05 |  |  |  | 
55 | G60A G63U | < 1e-05 | < 1e-05 | < 1e-05 |  | < 1e-05
56 | C58A G62A | < 1e-05 | < 1e-05 |  |  | 
57 | U55G C70A | 5.03e-05 ± 1.3e-05 | 0.00015 ± 3e-05 | 5.52e-05 ± 1.4e-05 | 0.000147 ± 2.4e-05 | 0.000131 ± 2.6e-05
58 | U55G U57G | < 1e-05 |  |  |  | 
59 | U55G U57C | < 1e-05 | 3.51e-05 ± 1e-05 |  |  | 
60 | A64C C68G C70G | < 1e-05 | < 1e-05 |  | < 1e-05 | 
61 | G60U C67U C70G | < 1e-05 |  |  | < 1e-05 | 
62 | U57A G59C | < 1e-05 |  | < 1e-05 |  | 
63 | G62U A64U C68U | < 1e-05 |  |  |  | < 1e-05
64 | G60C G62C | < 1e-05 |  | < 1e-05 |  | 
65 | G60C G62A | < 1e-05 |  | < 1e-05 |  | < 1e-05
66 | G60A G62U | < 1e-05 | < 1e-05 | < 1e-05 |  | 
67 | C61U G63A | < 1e-05 | < 1e-05 | < 1e-05 |  | < 1e-05
68 | G63U C71U | < 1e-05 | < 1e-05 |  |  | < 1e-05
69 | G60C C71G | < 1e-05 |  | < 1e-05 |  | < 1e-05
70 | C61A U65G | < 1e-05 | < 1e-05 | < 1e-05 |  | < 1e-05
71 | U56C C61G C67G | < 1e-05 |  |  |  | < 1e-05
72 | G63C U65G | < 1e-05 |  |  |  | 
73 | G59U G60C C67A C70G | < 1e-05 |  |  |  | 
74 | G60U G63C | < 1e-05 | < 1e-05 |  | < 1e-05 | < 1e-05
75 | C61G C71A | < 1e-05 |  |  |  | < 1e-05

Row | Variant | self-cleavage kobs at 40 uM GlcN6P (glucosamine-6-phosphate [1]) [s⁻¹] | self-cleavage kobs at 640 uM GlcN6P (glucosamine-6-phosphate [2]) [s⁻¹] | self-cleavage kobs at 160 uM GlcN6P (glucosamine-6-phosphate [3]) [s⁻¹] | self-cleavage kobs at 2500 uM GlcN6P (glucosamine-6-phosphate [4]) [s⁻¹] | self-cleavage kobs at 10000 uM GlcN6P (glucosamine-6-phosphate [5]) [s⁻¹]
76 | U57A C61U C70G | < 1e-05 | < 1e-05 |  |  | 
77 | U55G U69C | 0.000197 ± 4.3e-05 | 0.000303 ± 6.9e-05 | 0.000229 ± 6.1e-05 | 0.000289 ± 6.4e-05 | 0.000457 ± 8e-05
78 | U57A U65A | < 1e-05 |  | < 1e-05 |  | 
79 | U56G U57A G59U G60A | < 1e-05 |  |  |  | < 1e-05
80 | C61A C68U | < 1e-05 |  |  |  | < 1e-05
81 | G60A C70U | < 1e-05 |  |  | 1.93e-05 ± 9.2e-06 | 3.02e-05 ± 6.5e-06
82 | C58U A64G | < 1e-05 |  | < 1e-05 |  | 
83 | U57C G62U U65C | < 1e-05 |  |  |  | < 1e-05
84 | G59C C67U | < 1e-05 |  |  |  | 
85 | U56A G59C | < 1e-05 |  |  |  | 
86 | C58A G60A | < 1e-05 |  | < 1e-05 |  | < 1e-05
87 | U56A C70A | 3.68e-05 ± 1.1e-05 | 7.05e-05 ± 1.1e-05 | 5.73e-05 ± 1.1e-05 | 0.000153 ± 2.3e-05 | 8.51e-05 ± 9.4e-06
88 | U56A C70U | 0.000377 ± 3.2e-05 | 0.002 ± 0.00026 | 0.000852 ± 0.00013 | 0.0104 ± 0.0022 | 0.0156 ± 0.0024
89 | G60U C71G | < 1e-05 | < 1e-05 | < 1e-05 | < 1e-05 | < 1e-05
90 | G59A C68U U69G | < 1e-05 |  |  |  | 
91 | U57G A64C | < 1e-05 | < 1e-05 | < 1e-05 |  | < 1e-05
92 | U56C C71A | < 1e-05 |  |  |  | 
93 | G63A U65A | < 1e-05 |  |  | < 1e-05 | < 1e-05
94 | C61A G63A | < 1e-05 | < 1e-05 | < 1e-05 | < 1e-05 | 
95 | A64C C71U | < 1e-05 |  |  |  | 
96 | G62A U65A | < 1e-05 | < 1e-05 | < 1e-05 | < 1e-05 | < 1e-05
97 | G60U C67A C68G | < 1e-05 |  |  |  | 
